Out of some 110,000 compounds screened, about 230 (0.21%) showed an effect of 50% or more. The list shows a part of the results.
Molecular target: DPAP1 (Plasmodium falciparum, UniProt Q8IIJ9)
Assay: primary screen, percent inhibition; read by cleavage of a fluorogenic dipeptide substrate; higher = more effect of the substance
Design: species or system P. falciparum D10 trophozoite lysates; single well
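Note: 30 min substrate incubation versus DMSO and 10 µM JCP410 controls.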

DPAP1, sequence (Q8IIJ9 whole entry, looked up): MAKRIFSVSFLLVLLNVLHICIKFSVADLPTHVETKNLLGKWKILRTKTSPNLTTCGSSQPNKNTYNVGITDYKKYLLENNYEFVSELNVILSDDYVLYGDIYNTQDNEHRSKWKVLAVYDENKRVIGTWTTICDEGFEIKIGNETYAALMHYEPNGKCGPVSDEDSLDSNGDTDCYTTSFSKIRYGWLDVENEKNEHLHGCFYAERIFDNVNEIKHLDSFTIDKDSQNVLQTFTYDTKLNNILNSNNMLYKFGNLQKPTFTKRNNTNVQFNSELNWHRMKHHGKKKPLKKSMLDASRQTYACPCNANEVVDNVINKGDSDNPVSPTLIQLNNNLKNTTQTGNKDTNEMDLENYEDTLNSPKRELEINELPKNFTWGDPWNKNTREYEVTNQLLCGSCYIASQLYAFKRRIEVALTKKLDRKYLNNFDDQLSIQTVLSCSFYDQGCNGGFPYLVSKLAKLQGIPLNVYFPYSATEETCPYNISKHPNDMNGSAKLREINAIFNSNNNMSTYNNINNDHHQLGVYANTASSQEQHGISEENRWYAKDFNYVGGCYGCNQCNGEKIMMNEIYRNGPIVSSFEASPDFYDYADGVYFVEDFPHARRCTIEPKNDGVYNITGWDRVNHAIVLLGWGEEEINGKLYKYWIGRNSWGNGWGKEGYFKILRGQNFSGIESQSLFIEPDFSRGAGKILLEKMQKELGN

Compared with `CCCCSc1nc(O)cc(O)n1`, `CCCCN(C)C(=O)CSc1nc(NCc2ccc(OC)cc2)c2ccccc2n1` is higher in “% Inhibition @ 10 uM” value: -0.856% for the first, 4.02% for the second.

Going from `O=C1CC(c2cc3c(cc2Br)OCO3)c2cc3c(cc2N1)OCO3` (stereo not drawn) to `CCCNC(=O)c1cc(-c2ccc3c(c2)OCO3)on1`, the “% Inhibition @ 10 uM” value falls from -0.891% to -6.45%.

Compared with `CCCC(=O)Nc1sc(Cc2ccccc2)c(C)c1C(N)=O`, `Cc1cc(C)c2c(N)c(C(=O)NCCc3ccccc3)sc2n1` is higher in “% Inhibition @ 10 uM” value: 1.94% for the first, 33.6% for the second.

Compared with `CC(C)C[C@H](/N=c1\cc(O)oc2ccccc12)C(=O)NCC#N`, `CC(C)C[C@H](NC(=O)c1ccsc1)C(=O)NCC#N` is higher in “% Inhibition @ 10 uM” value: -6.56% for the first, 0.174% for the second.

Going from `C=CCn1c2ccccc2c2nnc(SCC(=O)c3ccccc3)nc21` to `C=CCN1C(=O)C(NC(=O)c2ccccc2)(C(F)(F)F)N=C1Cc1ccccc1` (stereo not drawn), the “% Inhibition @ 10 uM” value rises from -6.6% to 2.31%.

First: Cc1cc(C(=O)C(=O)Nc2nnc(-c3cccnc3)s2)c(C)n1-c1ccccc1F
Second: Cc1c(C(=O)Nc2cccc(Cl)c2)cnn1-c1ccccc1
The “% Inhibition @ 10 uM” value of the first is higher: 3.92% for the first, -2.32% for the second.

First: CCCCNC(=O)C1CCCN(c2nc3ccccc3o2)C1 (stereo not drawn)
Second: CCC[C@H](NC(=O)C1(NC(=O)c2cc3ccccc3o2)CCCCC1)C(=O)c1nc2ccccc2o1
The “% Inhibition @ 10 uM” value of the first is lower: 2.05% for the first, 3.19% for the second.

Compared with `O=C(CSc1nc2ccsc2c(=O)n1Cc1ccc(C(=O)O)cc1)Nc1nccs1`, `Cc1cc(C)c(-n2nnnc2SCC(=O)Nc2nccs2)c(C)c1` is lower in “% Inhibition @ 10 uM” value: 0.4% for the first, -1.24% for the second.

Compared with `COc1ccc(CN2CCN(Cc3ccc(SC)cc3)CC2)cc1`, `COc1ccccc1N1CCN(Cc2ccc([N+](=O)[O-])cc2)CC1` is lower in “% Inhibition @ 10 uM” value: -0.725% for the first, -1.07% for the second.

Compared with `COc1ccc(C2CC(=O)C3=C(C2)NC(=O)CC3c2ccc(O)cc2)cc1` (stereo not drawn), `O=C1CC(c2ccc(Cl)cc2)CC(=O)C1=CNCCc1ccccc1` (stereo not drawn) is higher in “% Inhibition @ 10 uM” value: 0.8% for the first, 1.57% for the second.

Compared with `Clc1ccc(N2CCN(CC3CCCCC3)CC2)cc1`, `O=C(CN(C1CCCCC1)S(=O)(=O)c1ccc(Br)cc1)N1CCCC1` is lower in “% Inhibition @ 10 uM” value: -1.64% for the first, -7% for the second.

Going from `Cc1ccc(CN2CCN(C(=S)NCC(=O)NCc3cccnc3)CC23CCCCC3)cc1` to `O=C(NC1CCCC1)c1ccc(Cn2cc(Br)cn2)cc1`, the “% Inhibition @ 10 uM” value rises from -1.21% to 1.67%.

First: CCOC(=O)N1CCC(NCCN2CCOCC2)CC1
Second: N=C(NOC(=O)N1CCOCC1)c1cccnc1
The “% Inhibition @ 10 uM” value of the first is higher: 0.565% for the first, -3.28% for the second.

Going from `O=C(c1cc2cc(Cl)ccc2oc1=O)N1CCC(Cc2ccccc2)CC1` to `Cc1cccc(Cn2nnc3c(O)nc(C4CCN(C(=O)c5ccccc5Cl)CC4)nc32)c1`, the “% Inhibition @ 10 uM” value rises from -2.79% to 3.81%.

Compared with `CC1=C(C(=O)Nc2cccc(C)n2)C(c2ccsc2)C2=C(O)CCCC2=N1` (stereo not drawn), `COc1ccc2c(c1)CCc1sc(NC(=O)c3ccc(C)cc3)nc1-2` is higher in “% Inhibition @ 10 uM” value: -4.4% for the first, -0.0735% for the second.

Going from `CC(NC(=O)Cn1nnc(-c2ccccc2F)n1)c1ccccc1` (stereo not drawn) to `Clc1ccc(Cn2nnc(-c3ccccc3Cl)n2)c(Cl)c1`, the “% Inhibition @ 10 uM” value falls from -1.24% to -3.14%.

Compared with `C=CCNc1nc(Nc2cccc3ccccc23)nc(OC(C(F)(F)F)C(F)(F)F)n1`, `CCOc1nc(-c2ccccc2)cc(-c2ccc(Br)cc2)n1` is higher in “% Inhibition @ 10 uM” value: -1.76% for the first, -1.5% for the second.

Compared with `N#CCNC(=O)C(CS(=O)(=O)Cc1ccccc1)CS(=O)(=O)Cc1ccccc1`, `COc1ccc(C(=O)NCCCCc2ccccc2)cc1` is lower in “% Inhibition @ 10 uM” value: -0.214% for the first, -12.4% for the second.

First: N#Cc1c(C(F)(F)F)cc(-c2cccs2)nc1SCc1ccncc1
Second: Brc1ccc(NCc2ccncc2)cc1
The “% Inhibition @ 10 uM” value of the first is higher: 57.7% for the first, -0.197% for the second.

Compared with `C=CCN1C(=O)N/C(=C/c2ccc(-c3cccc(F)c3)o2)C1=O`, `COc1ccccc1-c1ccc(/C=C/C(=O)c2ccco2)o1` is higher in “% Inhibition @ 10 uM” value: -15.4% for the first, 3.47% for the second.

Compared with `CC(C)(O)CC1[C@@]2(C)CCCC(C)(C)C2CC[C@@]1(C)O` (stereo partly drawn), `CC1C2CC(C(S(=O)(=O)N3CCOCC3)/C2=N/O)C1(C)C` (stereo not drawn) is lower in “% Inhibition @ 10 uM” value: -1.15% for the first, -4.26% for the second.

Compared with `CC(=O)OCC1C[C@@H]1c1ccccc1` (stereo partly drawn), `COc1cc(OC)c(C(C)=O)c(OCc2ccccc2)c1Br` is lower in “% Inhibition @ 10 uM” value: 1.41% for the first, -0.0925% for the second.

First: COc1ccc(Cn2nnc3c(O)nc(C4CCN(S(=O)(=O)c5ccc(C)cc5)CC4)nc32)cc1
Second: CC1CCN(S(=O)(=O)c2ccc3ncc(C(=O)NCc4ccccc4Cl)c(O)c3c2)CC1
The “% Inhibition @ 10 uM” value of the first is higher: 3.81% for the first, -1.46% for the second.

Going from `Brc1ccccc1OCCCCn1ccnc1` to `CC(=O)NCCc1nc2ccccc2n1Cc1ccccc1C`, the “% Inhibition @ 10 uM” value falls from -2.12% to -2.74%.

First: Cc1c(C(=O)NCCCOC(C)C)oc2c1-c1nn(Cc3cccc(Cl)c3)cc1CC2
Second: Cc1sc(NC(=O)c2ccccc2)c(CN2CC(C)OC(C)C2)c1C (stereo not drawn)
The “% Inhibition @ 10 uM” value of the first is higher: 16.2% for the first, -0.884% for the second.

First: CCOc1ccc(CCNC(=O)C2CCC(=O)N2C2CCCCC2)cc1OCC (stereo not drawn)
Second: O=C(NC1CCCCC1)c1ccccc1CCc1ccccc1
The “% Inhibition @ 10 uM” value of the first is lower: -1.79% for the first, 0.162% for the second.

First: COc1ccc(C=C(C#N)C#N)cc1OC
Second: COCC(C)NC(=O)c1cc(-c2ccc(OC)c(OC)c2)on1 (stereo not drawn)
The “% Inhibition @ 10 uM” value of the first is higher: 3.16% for the first, -7.85% for the second.

Compared with `O=C(NC1CCCCCC1)c1c(O)nc2ccccc2c1O`, `O=C(CCNS(=O)(=O)c1ccc2nc(O)ccc2c1)N1CCCC2CCCCC21` (stereo not drawn) is higher in “% Inhibition @ 10 uM” value: -2.17% for the first, -1.68% for the second.

Compared with `Cc1ccc(C(=O)N/C(=C\c2ccco2)C(=O)N2CCN(Cc3ccccc3)CC2)cc1C`, `O=C(c1ccc(Cl)cc1Cl)N1CCN(C/C=C/c2ccccc2)CC1` is lower in “% Inhibition @ 10 uM” value: -0.941% for the first, -3.03% for the second.

First: CCCC(=O)N(c1ccc2oc(C)c(C(C)=O)c2c1)S(=O)(=O)c1ccc(OC)cc1
Second: COc1ccc(N(CC(=O)Nc2cccc(Cl)c2C)S(=O)(=O)c2ccccc2)cc1
The “% Inhibition @ 10 uM” value of the first is lower: -4.53% for the first, 3.06% for the second.

Going from `CCCC(C)C(=O)Nc1cc(OC)ccc1OC` (stereo not drawn) to `COCC(C)NCc1ccc(OC)cc1` (stereo not drawn), the “% Inhibition @ 10 uM” value rises from -8.26% to -5.16%.

Compared with `C/C(Cl)=C/Cn1c(SCCc2ccccc2)nc2c1c(=O)[nH]c(=O)n2C`, `CCOC(=O)NC1(C(F)(F)F)C(=O)Nc2c1c(=O)[nH]c(=O)n2CCc1ccccc1` (stereo not drawn) is lower in “% Inhibition @ 10 uM” value: 4.7% for the first, 2.1% for the second.

Going from `COc1cc(C2NCCc3cc(OC)c(OC)cc32)ccc1O` (stereo not drawn) to `COc1ccc(CNC23CN4CN(CN(C4)C2)C3)cc1OC`, the “% Inhibition @ 10 uM” value falls from -5.5% to -13.5%.

First: Cc1nn(-c2ccccc2)c(Cl)c1/C=C1/C(=N)N2C(c3ccccc3)=CSC2=NC1=O
Second: Cc1ccc(Nc2nc(-c3ccccc3)cs2)cc1Cl
The “% Inhibition @ 10 uM” value of the first is higher: 4.74% for the first, -0.771% for the second.

Going from `O=C(O)CCC1CCC(=O)N1` (stereo not drawn) to `CCCC(=O)c1cc2ccc(O)cc2oc1=O`, the “% Inhibition @ 10 uM” value falls from 3.38% to -2.21%.

Going from `Cc1cccnc1NC(=O)C1c2ccccc2C(=O)N(CC(C)C)C1c1cccs1` (stereo not drawn) to `CCOC(=O)C1=C(C)N=c2s/c(=C/c3ccccc3Cl)c(=O)n2C1c1ccccc1Cl` (stereo not drawn), the “% Inhibition @ 10 uM” value rises from 1.69% to 3.48%.

Compared with `CSc1ccc(CCNC(=O)Cn2nc(C)c3c(C)n(-c4ccc(C)cc4)nc3c2=O)cc1`, `Cc1ccc(C2=NC(=O)C(NC(=O)c3ccc(F)cc3)(C(F)(F)F)N2)cc1` (stereo not drawn) is higher in “% Inhibition @ 10 uM” value: -3.43% for the first, -0.891% for the second.

First: CC(Oc1ccc(Cl)cc1Cl)C(=O)Nc1ccccc1C#N (stereo not drawn)
Second: COc1cc(NC(C)=O)c(Cl)cc1NC(=O)c1ccccc1
The “% Inhibition @ 10 uM” value of the first is higher: 2.76% for the first, -4.96% for the second.

Compared with `COC(=O)/C(C#N)=C/c1c(Oc2ccc(C(C)(C)C)cc2)nc2c(C)cccn2c1=O`, `COc1cccc(Oc2ccc(N/C=C/C(=O)C(C)(C)C)cc2)c1` is higher in “% Inhibition @ 10 uM” value: 2% for the first, 5.54% for the second.

First: CC(C)CCN1Cc2ccccc2C1
Second: CN1CCCN(Cc2ccc(F)c(F)c2)CC1
The “% Inhibition @ 10 uM” value of the first is lower: -7.35% for the first, 10.6% for the second.

First: COc1ccc(S(=O)(=O)Nc2nc3c(s2)C(=O)CC(C)(C)C3)cc1
Second: COc1ccc(S(=O)(=O)Nc2ccccc2F)cc1
The “% Inhibition @ 10 uM” value of the first is lower: -0.123% for the first, 3.47% for the second.

Compared with `O=C(Nc1ccc2c(c1)OCCO2)c1ccc(CNS(=O)(=O)c2cccc(C(F)(F)F)c2)cc1`, `CC(NS(=O)(=O)c1ccc(CN2C(=O)c3cccnc3C2=O)s1)c1ccc2c(c1)OCCO2` (stereo not drawn) is lower in “% Inhibition @ 10 uM” value: 0.161% for the first, -0.438% for the second.

Compared with `O=C(O)Cn1nc2c3c(cccc3c1=O)-c1ccccc1-2`, `O=C(CN1C(=O)c2ccccc2C1=O)NC1=NCCS1` is higher in “% Inhibition @ 10 uM” value: -3.23% for the first, 0.238% for the second.

First: CCOc1ccccc1NC=C1C(=O)N(C)C(=O)N(C)C1=O
Second: Cc1cccc(NC2=C(Cl)C(=O)N(Cc3ccccc3)C2=O)c1C
The “% Inhibition @ 10 uM” value of the first is lower: -4.41% for the first, 2.76% for the second.

Compared with `CC(C)C(NS(=O)(=O)c1cccc(C(=O)O)c1)C(=O)O` (stereo not drawn), `Cc1ccc(NS(=O)(=O)c2ccc(NC(=O)Nc3ccccc3)cc2)c(C)c1` is lower in “% Inhibition @ 10 uM” value: 17.1% for the first, -0.473% for the second.

First: CC(=O)c1ccc(OCCSc2nc3c(N)ncnc3[nH]2)cc1
Second: O=C(CCSc1nc2ccccc2s1)Nc1ccc(F)cc1
The “% Inhibition @ 10 uM” value of the first is higher: 1.93% for the first, -2.83% for the second.

Compared with `CC(C)c1ccc(-c2nc(N3CCCC3)nc3[nH]nc(N)c23)cc1`, `Cc1nc2cc(NC(=O)N3CCCC3)ccc2n1C` is lower in “% Inhibition @ 10 uM” value: 1.94% for the first, -2.74% for the second.

First: Cc1nc2c(c(C)nn2C)c(C)c1CCC(=O)NCCCN1CCCC1=O
Second: Cn1c(=O)c2ncn(CC(=O)Nc3sc4c(c3C#N)CCCC4)c2n(C)c1=O
The “% Inhibition @ 10 uM” value of the first is lower: -6.09% for the first, 1.57% for the second.

Going from `O=C(CSc1ccc(Cl)cc1)Nc1cccc(NC(=O)c2ccco2)c1` to `Cc1ccc(C(=O)Nc2ccc(C#N)cc2)cc1Br`, the “% Inhibition @ 10 uM” value rises from -1.44% to 2.95%.

Compared with `CCOC(=O)c1cc(CC)sc1NC(=O)c1cccs1`, `COc1ccccc1CC(=N)NOC(=O)c1ccc(C(C)(C)C)cc1` is higher in “% Inhibition @ 10 uM” value: 2.92% for the first, 3.79% for the second.

First: Cc1ccc(S(=O)(=O)n2nc(-c3cccnc3)nc2NCc2ccccc2)cc1
Second: CCCNC(=O)CCCn1c2ccccc2c2cnnc(O)c21
The “% Inhibition @ 10 uM” value of the first is higher: 3.81% for the first, -7.54% for the second.
